# Data from article PMC4336329 (PLoS ONE, 2015).
# In all, about 310,000 compounds went through this assay and about 14,000 (4.5%) showed an effect of 50% or more. Effects have a minus sign here. Some of the results follow.
# Molecular target: human ether-à-go-go-related gene (hERG) potassium channel (human, UniProt Q12809)
# Test: primary screen, population patch clamp on CHO cells stably expressing hERG
# 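Also: peak tail current of the secondary pulse compared with the same well before compound.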
# Sequence of human ether-à-go-go-related gene (hERG) potassium channel (Q12809 whole entry, looked up): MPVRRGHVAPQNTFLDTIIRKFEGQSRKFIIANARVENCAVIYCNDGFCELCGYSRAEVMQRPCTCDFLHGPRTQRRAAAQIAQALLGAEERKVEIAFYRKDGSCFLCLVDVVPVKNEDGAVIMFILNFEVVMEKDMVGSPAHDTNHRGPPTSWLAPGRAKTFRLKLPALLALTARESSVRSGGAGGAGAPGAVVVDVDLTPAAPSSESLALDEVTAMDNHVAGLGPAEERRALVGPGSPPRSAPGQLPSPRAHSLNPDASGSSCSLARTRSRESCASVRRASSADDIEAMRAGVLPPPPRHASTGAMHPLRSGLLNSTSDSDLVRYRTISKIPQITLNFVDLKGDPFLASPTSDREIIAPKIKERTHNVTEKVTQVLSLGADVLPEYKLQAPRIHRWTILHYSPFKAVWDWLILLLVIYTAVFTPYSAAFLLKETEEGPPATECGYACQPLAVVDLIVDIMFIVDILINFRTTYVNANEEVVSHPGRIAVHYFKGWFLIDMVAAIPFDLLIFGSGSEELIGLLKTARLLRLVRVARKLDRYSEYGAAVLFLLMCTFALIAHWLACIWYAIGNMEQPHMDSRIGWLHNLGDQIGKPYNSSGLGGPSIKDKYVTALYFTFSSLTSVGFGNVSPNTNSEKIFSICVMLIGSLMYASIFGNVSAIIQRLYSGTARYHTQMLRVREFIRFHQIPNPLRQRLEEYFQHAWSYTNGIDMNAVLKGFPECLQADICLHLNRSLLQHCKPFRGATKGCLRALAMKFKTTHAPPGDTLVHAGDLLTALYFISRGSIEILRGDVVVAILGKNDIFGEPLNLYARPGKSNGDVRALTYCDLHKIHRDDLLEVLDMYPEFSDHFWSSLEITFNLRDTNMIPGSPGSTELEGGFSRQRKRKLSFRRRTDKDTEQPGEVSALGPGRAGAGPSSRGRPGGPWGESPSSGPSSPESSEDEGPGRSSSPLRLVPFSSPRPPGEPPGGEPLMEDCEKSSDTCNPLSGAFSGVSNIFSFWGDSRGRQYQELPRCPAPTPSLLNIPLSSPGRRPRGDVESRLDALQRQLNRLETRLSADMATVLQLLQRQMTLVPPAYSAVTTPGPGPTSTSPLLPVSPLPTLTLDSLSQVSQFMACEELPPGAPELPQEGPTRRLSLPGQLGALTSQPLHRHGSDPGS
row,Structure (SMILES),"hERG current change (%, negative = inhibition) at 10uM [%]"
1,Nn1c(SCC(=O)NC2CCS(=O)(=O)C2)nc2scc(-c3ccccc3)c2c1=O (centres unmarked),3.48
2,COc1ccc(Nc2cc(C(=O)NCCCN3CCOCC3)c3ccccc3n2)c(OC)c1,-19.2
3,COCCN1CC(C(=O)NCCc2nc(C)c(C)s2)CCC1=O (centres unmarked),21.6
4,CCC(COC)NCc1cn(-c2ccc(F)cc2F)nc1-c1ccccc1C (centres unmarked),-18
5,C[C@]12CC[C@@H]3c4ccc(O)cc4[C@@H](O)C[C@H]3[C@@H]1CC[C@@H]2O,10.4
6,Cc1ccc(/C=N/NC(=O)Cn2nccc2C)o1,-0.784
7,CCOc1cc(/C=C(\C#N)C(=O)Nc2cccc(C(=O)O)c2)ccc1OCc1ccc(Br)cc1,15.9
8,Cn1c(NN)nc2sc3c(c2c1=O)CCC3,-7.28
9,CCN(CC)CCCNC(=O)c1oc2ccc(S(=O)(=O)N3CC(C)CC(C)C3)cc2c1C (centres unmarked),-32
10,O=C(CN(CC(=O)N1CCOCC1)S(=O)(=O)c1ccc(Br)s1)N1CCOCC1,12.8
11,O=[N+]([O-])c1cc(C(F)(F)F)cc([N+](=O)[O-])c1NCCNC(=S)Nc1ccc(Cl)c(Cl)c1,12
12,Cc1cc(NC(=O)c2ccco2)sc1C,-1.03
13,O=C(NCC1CCCO1)C1CCN(C2CCN(C(=O)CC3CCCC3)CC2)CC1 (centres unmarked),-10
14,C=CCN(CC=C)C(=O)c1ccc(OC2CCN(S(=O)(=O)N(C)C)CC2)cc1,14.4
15,O=C(N/N=C/c1sc(=O)n(-c2ccccc2)c1Cl)c1ccncc1,15.4
16,Cc1ccc(S(=O)(=O)N2[C@@H](c3cccc(Cl)c3)C(C(=O)O)=CC[C@H]2c2ccc(C(C)C)cc2)cc1,4.45
17,CCN1C(=O)C(C(=O)c2ccccc2)SC1=S (centres unmarked),23.1
18,O=C(NCCCN1CCN(Cc2ccccc2)CC1)C1CCN(S(=O)(=O)N2CCCC2)CC1,-18.5
19,COc1ccc(NC(=O)Nc2nnc(-c3ccco3)s2)cc1,10.7
20,Cn1c(NCCCO)nc2ccccc21,9.51
21,BrC(=C\c1ccccc1)/C=N/N1CCN(Cc2ccccc2)CC1,4.34
22,O=C(NCCS(=O)(=O)NCCc1ccccc1)c1ccc2c(c1)OCO2,-6.13

row,Structure (SMILES),"hERG current change (%, negative = inhibition) at 10uM [%]"
1,O=C(CSc1nnc(-c2ccco2)c(-c2ccco2)n1)c1ccccc1,4.5
2,Cc1ccn2c(=O)c(C(=O)NCCCN3CCCCC3C)c(O)nc2c1 (centres unmarked),6.34
3,O=C(O)C1CC=C(Cl)CC1C(=O)NCC1OCCc2ccccc21 (centres unmarked),10.5
4,CCOc1ccc(NC(=O)C(C)C(Cc2ccc(C)cc2)C(=O)O)cc1 (centres unmarked),10.1
5,Cc1cc(C)nc(N/N=C/c2cccc(Cl)c2)n1,-26.7
6,COc1ccc(S(=O)(=O)N2CCOCC2)cc1NC(=O)CSc1ccc(F)cc1,-42.6
7,O=C(Cn1cnc2ccccc2c1=O)N1CCN(S(=O)(=O)c2ccc(F)cc2)CC1,-13.6
8,CCCc1nn2c(=O)cc(CSCC(=O)Nc3ccccc3)nc2s1,21.4
9,O=C(OCC(=O)N1CCCc2ccccc21)c1ccc(S(=O)(=O)C(F)F)cc1,-28.8
10,O=C(CSc1ncnc2sccc12)NCc1ccc2c(c1)OCO2,-16.9
11,Cc1cc(C(=O)CN(Cc2ccc(F)cc2)S(=O)(=O)c2ccc3c(c2)OCCO3)c(C)n1C,6.98
12,COc1c(F)c(F)c(C(=O)Nc2cccc(Cl)c2N2CCOCC2)c(F)c1F,11.4
13,CCCCNC(=O)c1cc2c(=O)n(CC)c3ccccc3c2s1,12.8
14,CN(Cc1cccnc1)Cc1cn(Cc2ccccc2)nc1-c1ccc2c(c1)OCO2,-11.7
15,CC(=O)Nc1ccc(SCc2ncc(-c3ccccc3)o2)cc1,-12.2
16,CCSc1nnc(NC(=O)CSc2nc(C)cc(C)n2)s1,-17.8
17,O=C(O)C1Cc2ccccc2CN1C(=O)COc1ccc(Cl)cc1 (centres unmarked),9.84
18,COc1ccc([N+](=O)[O-])cc1NC1CCN(C(=O)c2cccs2)CC1,-85.7
19,CCCn1c(SCC(=O)NCc2ccc(Cl)cc2)n[nH]c1=O,7.48
20,CCCOc1ccc2c(CC)cc(=O)oc2c1C,1.32
21,O=C(CN1CCN(S(=O)(=O)c2cc(Cl)ccc2Cl)CC1)c1ccc(O)c(O)c1,26.3
22,COc1cc(/C=N/NC(=O)CC2(C)OCCCO2)ccc1OCc1ccccc1,1.35
